# Assay results reported in PubChem BioAssay AID624173 (National Center for Advancing Translational Sciences (NCATS), 2012).
# Hit rate of the full screen: of about 410,000 compounds, about 490 (0.12%) were called active. Inconclusive results, whose numbers are uncertain, are shown with a selection of clear calls. The call rests on the fitted dose curve; in most records, active means well fitted inhibition curve with a large enough effect; inconclusive means small, poorly fitted or top-dose-only effect; inactive means flat fitted curve, though single readings scatter. A potency beside an inconclusive call is a rough fit, not a confirmed value.
# Biological target: pyruvate kinase (Trypanosoma brucei) (UniProt Q57TT1)
# Assay: qHTS of Trypanosoma Brucei Inhibitors; further: nearly all actives have a fitted effect of over 50% in size
# Conditions: TbPYK enzyme, Kinase-Glo Plus ATP luminescence, 45 min; series mostly up to 76.8 µM
# Procedure, shortened: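 Enzyme and substrate buffer are dispensed first and compound is pin-transferred. ADP at 130 uM final then starts the reaction, which runs 45 min at room temperature. Detection reagent is added for 10 min before luminescence is imaged.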
# Potency means the concentration at half of the fitted maximal effect; tags describe the fitted curve by direction and shape.
row,SMILES,Potency
1,C=CCc1c(C)[nH]c(=S)c(C#N)c1C,"inconclusive: 1.58 µM [inhibitor, full curve, poor fit]"
2,CCc1ccc(Nc2nnc(SCc3cc(=O)n4ccsc4n3)s2)cc1,"inconclusive: 35.5 µM [inhibitor, partial curve, poor fit]"
3,COc1cc(CNn2c(C)n[nH]c2=S)cc(Br)c1OCC(=O)NC(C)(C)C,"inconclusive: 15.8 µM [inhibitor, partial curve, poor fit]"
4,COCCn1c(=S)[nH]c2sc3c(c2c1=O)CCC(C)C3 (configuration not stated),"inconclusive: 6.31 µM [inhibitor, full curve]"
5,S=c1[nH]nc(-c2ccncc2)n1/N=C/C=C/c1ccccc1,"inconclusive: 0.794 µM [inhibitor, full curve, poor fit]"
6,N#CC1=C2SCN(Cc3ccccc3)CN2C(=O)CC1c1ccc2c(c1)OCO2 (configuration not stated),"inconclusive: 28.2 µM [inhibitor, partial curve, poor fit]"
7,Cc1cc(C)cc(OCC(=O)Nc2cccc3cccnc23)c1,"inconclusive: 50.1 µM [inhibitor, single point]"
8,NC(=O)c1c(N)sc2c1CCCC2,"inconclusive: 22.4 µM [inhibitor, partial curve]"
9,COC(=O)c1ccc2c(=O)n(CCCCCC(=O)NCCc3ccccc3)c(=O)[nH]c2c1,inactive
10,Cc1ccccc1NC(=S)NNC(=O)c1cccnc1,active: 4.47 µM
11,O=C(O)c1cccc(Cn2c(Cl)c(/C=N/NC(=O)c3ccco3)sc2=O)c1,inactive
12,CC1(C)CC(=O)C2=C(C1)NC(=S)C(C#N)C21CCCCC1 (configuration not stated),active: 2.82 µM
13,COc1ccc2ccccc2c1C1CC(=O)N2CN(Cc3ccco3)CSC2=C1C#N (configuration not stated),"inconclusive: 2.51 µM [inhibitor, full curve]"
14,CCOc1ccc(Nc2cc(C)nc3nncn23)cc1,inactive
15,CCOC(=O)C1(CC2CCCCO2)CCN(S(=O)(=O)c2cc(C)cs2)CC1 (configuration not stated),inactive
16,CCOC(=O)C1=C(O)/C(=C\c2ccc(CNC(=O)C(=O)Nc3ccccc3)o2)N=C1C,inactive
17,Cc1cccc(-n2c(=S)[nH]c3c(oc4ccccc43)c2=O)c1,inactive
18,Cc1ccc(C)c(OCC(O)CN2C(C)CCCC2C)c1 (configuration not stated),"inconclusive: 39.8 µM [inhibitor, single point]"
19,CCN1/C(=C/c2ccc3ccccc3[n+]2CC)C=Cc2ccccc21,active: 31.6 µM
20,O=S(=O)(NCc1cc(-c2ccccc2Cl)no1)c1ccc(Cl)cc1,"inconclusive: 39.8 µM [inhibitor, partial curve, poor fit]"
21,CC(=O)N(C)c1ccc(C=C2C=Cc3ccccc32)cc1,"inconclusive: 50.1 µM [inhibitor, single point]"
22,Cc1cc(C)n(-c2nc3cc(Cl)ccc3nc2Nc2ccc(CC(=O)O)cc2)n1,inactive
23,O=C1C(=O)N(CCN2CCOCC2)C(c2ccccn2)/C1=C(/O)c1ccc(F)cc1 (configuration not stated),"inconclusive: 50.1 µM [inhibitor, single point]"
24,CC(C)Cn1c(C23CC4CC(CC(C4)C2)C3)n[nH]c1=S,"inconclusive: 14.1 µM [inhibitor, partial curve, poor fit]"

row,SMILES,Potency
1,CC(=O)ON=C1C=CC(=C(C#N)c2ccccc2)C=C1,"inconclusive: 50.1 µM [inhibitor, single point]"
2,NC(=O)C1CCN(c2nc(-c3ccc4ccccc4c3)cs2)CC1,"inconclusive: 5.62 µM [inhibitor, partial curve, poor fit]"
3,O=C(CN1C(=O)COc2ccc(S(=O)(=O)N3CCCC3)cc21)N1CCN(c2cccc(C(F)(F)F)c2)CC1,inactive
4,CCOc1ccc(OCC(=O)Nc2nccs2)cc1,active: 22.4 µM
5,CCOC(=O)c1sc(=S)n(C)c1NC(=O)c1ccc(F)cc1,"inconclusive: 22.4 µM [inhibitor, partial curve, poor fit]"
6,CCNc1ccc(Br)cc(C(=O)/C=C/c2ccc3c(c2)OCO3)c1=O,"inconclusive: 25.1 µM [inhibitor, partial curve]"
7,Cc1cc(C)c(C(N)=O)c(NC(=O)Nc2ccccc2Cl)n1,inactive
8,COc1ccc(CCNC(=O)/C=C/c2ccco2)cc1OC,"inconclusive: 39.8 µM [inhibitor, single point]"
9,CCOc1ccc(/C=N/NC(=O)c2[nH]ncc2Br)c(O)c1,"inconclusive: 28.2 µM [inhibitor, partial curve]"
10,O=C(Nc1ccc(N2CCCC2)cc1)c1cc([N+](=O)[O-])ccc1N1CCOCC1,"inconclusive: 8.91 µM [inhibitor, partial curve, poor fit]"
11,O=C(COc1ccccc1F)Nc1nc(-c2ccccn2)cs1,"inconclusive: 35.5 µM [inhibitor, partial curve, poor fit]"
12,Cc1ccc(Nc2nc(CSc3nnc(-c4ccc(F)cc4)n3C)cs2)cc1,inactive
13,O=C(O)CCc1ccc(-c2cccs2)n1NC(=O)c1cccs1,inactive
14,CCN(CC)CCN(Cc1cc2cc3c(cc2[nH]c1=O)OCCO3)C(=S)NCCCN(C)C,inactive
15,Cc1ccc(S(=O)(=O)NN=Cc2ccccc2Cl)cc1,inactive
16,CC1=Nc2cc(C(=O)NCCCOC(C)C)ccc2Sc2ccc(C)cc21,inactive
17,Cn1c(-c2sc3cc(C(F)(F)F)cnc3c2-c2cccs2)n[nH]c1=S,"inconclusive: 12.6 µM [inhibitor, partial curve, poor fit]"
18,CCN1C(=O)/C(=C/c2ccc3c(c2)CCN3CCCCl)C(=O)NC1=S,"inconclusive: 31.6 µM [inhibitor, partial curve]"
19,CCn1ccc2c(OCC(=O)NCc3ccc(C)cc3)cccc2c1=O,inactive
20,S=c1[nH]nc(CCc2ccc(Cl)cc2)o1,"inconclusive: 11.2 µM [inhibitor, partial curve, poor fit]"
21,CC(Sc1nc(N2CCOCC2)c2c(c1C#N)CC(C)(C)OC2)C(=O)O (configuration not stated),inactive
22,CCOC(=O)c1c(NC(=S)NCC2CCCO2)sc(C)c1C (configuration not stated),"inconclusive: 20 µM [inhibitor, partial curve, poor fit]"
23,Cc1cc(C)cc(NC(=O)N2CCc3ccccc3C2)c1,inactive
